Results as given in publication PMC4336329 (PLoS ONE, 2015).
The campaign covered roughly 310,000 compounds. About 2,200 (0.71%) showed an effect of 50% or more. The effect is printed as a negative number. Some of the results follow.

These compounds were tested against human ether-à-go-go-related gene (hERG) potassium channel (human, UniProt Q12809) (assay: primary screen, population patch clamp on CHO cells stably expressing hERG).
Sequence of human ether-à-go-go-related gene (hERG) potassium channel (Q12809 whole entry, looked up): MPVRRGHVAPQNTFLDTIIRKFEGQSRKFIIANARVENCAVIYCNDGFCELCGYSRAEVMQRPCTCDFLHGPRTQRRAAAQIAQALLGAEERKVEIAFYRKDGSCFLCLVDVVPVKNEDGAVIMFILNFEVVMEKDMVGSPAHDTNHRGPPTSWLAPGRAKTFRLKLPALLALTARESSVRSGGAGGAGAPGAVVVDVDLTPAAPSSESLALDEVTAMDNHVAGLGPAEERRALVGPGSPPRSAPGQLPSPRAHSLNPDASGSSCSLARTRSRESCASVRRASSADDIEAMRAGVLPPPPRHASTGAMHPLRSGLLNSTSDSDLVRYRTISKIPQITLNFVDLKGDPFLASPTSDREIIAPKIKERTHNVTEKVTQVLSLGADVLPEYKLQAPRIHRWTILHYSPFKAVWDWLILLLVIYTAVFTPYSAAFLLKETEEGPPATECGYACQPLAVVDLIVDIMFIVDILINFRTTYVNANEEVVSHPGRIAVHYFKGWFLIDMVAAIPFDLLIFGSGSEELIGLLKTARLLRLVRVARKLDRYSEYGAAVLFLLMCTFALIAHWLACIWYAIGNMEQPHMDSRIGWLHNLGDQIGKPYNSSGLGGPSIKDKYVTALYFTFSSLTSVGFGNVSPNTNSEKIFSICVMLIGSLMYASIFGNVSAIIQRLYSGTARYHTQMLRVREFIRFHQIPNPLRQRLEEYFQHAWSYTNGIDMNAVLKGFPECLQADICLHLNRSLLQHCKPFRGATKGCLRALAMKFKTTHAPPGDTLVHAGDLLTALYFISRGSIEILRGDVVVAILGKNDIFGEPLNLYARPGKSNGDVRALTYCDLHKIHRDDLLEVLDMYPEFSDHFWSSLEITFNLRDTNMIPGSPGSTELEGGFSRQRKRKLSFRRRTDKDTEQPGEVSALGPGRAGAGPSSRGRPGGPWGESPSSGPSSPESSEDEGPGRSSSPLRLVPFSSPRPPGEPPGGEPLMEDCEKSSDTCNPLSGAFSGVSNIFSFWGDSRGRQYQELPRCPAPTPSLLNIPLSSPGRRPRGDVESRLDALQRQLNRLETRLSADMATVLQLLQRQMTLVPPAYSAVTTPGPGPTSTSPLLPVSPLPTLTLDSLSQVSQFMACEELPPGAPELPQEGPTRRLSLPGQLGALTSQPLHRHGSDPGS

Compound	hERG current change (%, negative = inhibition) at 1uM [%]
Cc1ccc(-c2nc3ccccn3c2NCc2ccc3c(c2)OCO3)cc1	-20.8
Brc1ccc(-c2nc3ncccn3c2Nc2ccc3c(c2)OCCO3)o1	8.93
CCCCC(=O)N/C(N)=N/c1nc2ccccc2o1	12
Cc1nc(NCc2ccccc2)[nH]c(=O)c1CCC(C)C	17.5
COCc1cc(C)nc(SCc2ccc(Br)cc2)c1C#N	9.75
Cc1ccn2c(CNC(C)CCn3cccn3)c(C(=O)N3CCCCCC3)nc2c1 (centres unmarked)	-16.2
O=C(NCC1CCCO1)c1cc(NS(=O)(=O)c2cccs2)cc(NS(=O)(=O)c2cccs2)c1 (centres unmarked)	13.8
CCN(CC)CC(=O)Nc1sc2c(c1C(=O)c1ccccc1C)CCC2	10.4
CCN1CCN(C(c2cccs2)C(C)NS(=O)(=O)c2ccc(F)cc2)CC1 (centres unmarked)	-5.31
COC(=O)c1ccccc1NC(=O)C1CCCN(c2nnc(-n3cccc3)s2)C1 (centres unmarked)	-10.1
CCCCn1c(N)c(-c2nc3ccccc3s2)c2c([N+](=O)[O-])nn(C)c(=O)c21	-3.71
Cc1cc(NC(=O)c2cccc3c2C(=O)N(C2CCCCC2)C3)ccc1Br	16.3
Cc1cc2ncc(Cl)nc2cc1C	19.6
COC(=O)c1c(C)oc2ccc(N(C(=O)Oc3ccccc3)S(=O)(=O)c3ccccc3)cc12	8.21
CCOc1ccc(-c2[nH]nc3c2C(c2ccc4c(c2)OCO4)C(C#N)=C(N)O3)cc1OC (centres unmarked)	0.511
O=c1n(-c2ccccc2)c(=O)n2n1CCC2	3.4
CC1CCCCC1NC(=O)COC(=O)Cc1ccc(Br)cc1 (centres unmarked)	17.7
CCCCCCC(=O)Nc1ccc(S(=O)(=O)Nc2onc(C)c2C)cc1	16
CCOc1ccc(CNS(=O)(=O)c2cc(CN3C(=O)c4cccnc4C3=O)ccc2OC)cc1	-2.04

Compound	hERG current change (%, negative = inhibition) at 1uM [%]
Cc1cc(NCCOCCO)n2ncc(-c3ccc(Cl)cc3)c2n1	12.2
Cc1nn(Cc2ccc([N+](=O)[O-])cc2)c(=O)n1-c1ccccc1	-8.13
O=C(NC1CCCC1)C(c1ccncc1)N(C(=O)c1csnn1)c1cccc(F)c1 (centres unmarked)	13.5
Cc1cc(C)nc(Nc2ncc(O)n2-c2ccc(C)c(Cl)c2)n1	14.2
CNC(=O)NC(=O)CSc1nc2ccccc2n1CCOC	4.94
CCOC(=O)c1c(N)sc(C(=O)Nc2ccc3c(c2)OCO3)c1C	-3.27
Cc1ccc(C(=O)CSc2nnc(-c3ccco3)n2C)cc1	4.49
CCCCOc1ccccc1C1NC(=O)CCC1[N+](=O)[O-] (centres unmarked)	11.9
CCC1Sc2ccc(S(=O)(=O)CCC(=O)N3CCc4ccccc43)cc2NC1=O (centres unmarked)	3.13
COc1ccc(N2CCN(C(=O)[C@@H](NC(=O)c3ccccc3Cl)C(C)C)CC2)cc1	19.6
COc1cc(CNCc2ccccc2C(F)(F)F)cc(OC)c1.O=C(O)C(=O)O	6.09
c1ccc(CN2CCN(c3nc4ccccc4s3)CC2)cc1	15.1
CCSCCc1nnc(NC(=O)Nc2cccc(C(F)(F)F)c2)s1	3.99
Cc1noc(C)c1/C=N/Nc1ccccn1	10.5
CN1/C(=C\C(=O)C[n+]2cccc(Br)c2)C(C)(C)c2ccccc21.[Cl-]	3.92
COc1ccc(CCC(C)N(C)Cc2ccccc2)cc1 (centres unmarked)	-6.74
C/C(CC(=O)Nc1ccc(F)cc1)=N\NC(=O)c1ccccn1	4.39
O=Cc1c(Nc2ccccc2Cl)nc2ccccn2c1=O	12.4
Cc1ccc(S(=O)(=O)c2c(N)n(/N=C/c3ccco3)c3nc4ccccc4nc23)cc1	9.97

Compound	hERG current change (%, negative = inhibition) at 1uM [%]
CCCC(=O)Nc1ccc(S(=O)(=O)N2CCC(c3nc4ccccc4[nH]3)CC2)cc1	-7.71
S=C(NCCCCNC(=S)NCc1ccccc1)NCc1ccccc1	6.63
CC(=O)Nc1ccc(S(=O)(=O)N(C)CC(=O)OCC(=O)N2CCCCCC2)cc1	11.3
C=CCNC(=S)N/N=C/c1ccc(OCc2ccccc2Cl)cc1	2
COC(=O)C(C(=O)Nc1ccccc1C)C1CCCCCC1 (centres unmarked)	9.43
Cc1ccc(N2CC(C(=O)Nc3ccc(S(=O)(=O)Nc4nccs4)cc3)CC2=O)cc1 (centres unmarked)	16.1
Cc1ccc(-n2c(-c3cnccn3)n[nH]c2=S)c(Br)c1	10.7
Cn1nnnc1SC1CC(=O)N(c2ccccc2)C1=O (centres unmarked)	0.721
CCOC(=O)c1cc(C(=O)OCC)c(=O)[nH]c1C	12.3
CCCCCNC(=O)c1cc(S(=O)(=O)N2CCCC2)ccc1F	5.33
CC1CCCCC12NC(=O)N(CC(=O)NCCc1ccc(S(N)(=O)=O)cc1)C2=O (centres unmarked)	8.41
Cc1csc(SCC(=O)NCCc2ccc(Cl)cc2)n1	2.21
Cc1cc(Cl)c(S(=O)(=O)Nc2cc(S(=O)(=O)N3CCOCC3)ccc2F)cc1OCC(N)=O	6.64
CC(C)Cn1c(-c2cc([N+](=O)[O-])ccc2Cl)nc2c1c(=O)[nH]c(=O)n2Cc1ccccc1	16.7
O=C(NN1C(=O)/C(=C/c2cc([N+](=O)[O-])ccc2O)SC1=S)c1ccccc1O	8.7
O=C(Nc1ccc(N2CCN(C(=O)c3ccccc3)CC2)c(Cl)c1)c1cccnc1	8.16
CCc1c(C)nc(N2CCN(c3ccccc3)CC2)[nH]c1=O	13.7
C1CCCCCC(=NNc2nn[nH]n2)CCCCC1	12.4
